Reference: article PMC12290104, “PEAK1 maintains tight junctions in intestinal epithelial cells and resists colitis by inhibiting autophagy-mediated ZO-1 degradation” (Nature Communications, 2025)
Read-outs that look alike come from different tables or passages of the source. Results are given in words; binding and its absence hold for the method and conditions named. Binding seen in cells or lysates may run through a third protein. Some entries that bind do so weakly or less than the wild type. For some of these results: Where a sequence is shown, tags or fusion partners need not be part of it. One block for each molecule: values may come before it.

Amino acid sequences for entries named in this document (tags omitted). A change or cut given only in a name is not applied to a line headed by its entry. Chains listed by the source or under a name are the forms on record and can include a tag or linker.
UniProt Q07157: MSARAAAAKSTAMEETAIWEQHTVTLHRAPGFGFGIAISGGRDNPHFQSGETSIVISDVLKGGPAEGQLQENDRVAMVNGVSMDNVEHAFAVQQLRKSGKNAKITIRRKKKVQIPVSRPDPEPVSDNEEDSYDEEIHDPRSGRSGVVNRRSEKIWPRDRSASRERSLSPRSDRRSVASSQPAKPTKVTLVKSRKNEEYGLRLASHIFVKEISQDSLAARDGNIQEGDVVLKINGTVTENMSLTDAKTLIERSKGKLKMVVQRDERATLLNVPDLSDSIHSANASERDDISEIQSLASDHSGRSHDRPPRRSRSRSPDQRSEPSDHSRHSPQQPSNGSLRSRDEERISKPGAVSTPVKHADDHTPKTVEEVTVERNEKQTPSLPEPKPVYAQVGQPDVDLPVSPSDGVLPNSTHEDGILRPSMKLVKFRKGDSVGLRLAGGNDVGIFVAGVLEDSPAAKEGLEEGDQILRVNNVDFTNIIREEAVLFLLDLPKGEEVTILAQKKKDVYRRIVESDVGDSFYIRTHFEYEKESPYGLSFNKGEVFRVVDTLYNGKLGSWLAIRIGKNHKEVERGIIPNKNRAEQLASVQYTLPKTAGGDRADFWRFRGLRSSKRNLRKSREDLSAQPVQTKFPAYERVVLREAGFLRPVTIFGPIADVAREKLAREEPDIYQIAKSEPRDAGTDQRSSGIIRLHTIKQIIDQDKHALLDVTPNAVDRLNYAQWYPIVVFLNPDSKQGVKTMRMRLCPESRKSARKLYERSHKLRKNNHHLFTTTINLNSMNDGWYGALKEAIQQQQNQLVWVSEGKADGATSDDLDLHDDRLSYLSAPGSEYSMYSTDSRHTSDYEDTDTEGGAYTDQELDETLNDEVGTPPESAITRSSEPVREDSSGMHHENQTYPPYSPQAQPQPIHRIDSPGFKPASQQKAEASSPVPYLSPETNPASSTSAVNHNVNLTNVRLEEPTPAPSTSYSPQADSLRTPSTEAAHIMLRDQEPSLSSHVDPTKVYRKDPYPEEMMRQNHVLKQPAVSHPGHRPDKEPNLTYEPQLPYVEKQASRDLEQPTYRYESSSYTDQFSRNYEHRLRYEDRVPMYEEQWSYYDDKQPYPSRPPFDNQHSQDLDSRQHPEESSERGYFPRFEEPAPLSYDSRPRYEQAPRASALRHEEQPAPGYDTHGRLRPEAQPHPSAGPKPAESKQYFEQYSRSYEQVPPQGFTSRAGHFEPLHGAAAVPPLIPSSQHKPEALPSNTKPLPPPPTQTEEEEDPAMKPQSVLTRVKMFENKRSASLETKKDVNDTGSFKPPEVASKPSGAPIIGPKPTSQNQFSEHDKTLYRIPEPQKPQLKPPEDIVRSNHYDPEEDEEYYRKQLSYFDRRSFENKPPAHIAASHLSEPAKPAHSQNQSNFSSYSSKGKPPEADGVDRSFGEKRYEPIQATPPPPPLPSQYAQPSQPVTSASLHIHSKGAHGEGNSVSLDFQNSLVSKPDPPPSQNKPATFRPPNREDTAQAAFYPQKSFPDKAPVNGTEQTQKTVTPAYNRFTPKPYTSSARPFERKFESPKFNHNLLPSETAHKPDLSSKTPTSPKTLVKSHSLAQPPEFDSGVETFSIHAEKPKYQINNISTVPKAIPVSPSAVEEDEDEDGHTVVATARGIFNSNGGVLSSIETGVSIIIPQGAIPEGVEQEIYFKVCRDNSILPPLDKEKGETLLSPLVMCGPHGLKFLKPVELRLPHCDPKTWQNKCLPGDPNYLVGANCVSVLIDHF
GFP-tagged mutant ZO-1 with a 1212-1217 amino acid deletion (Q07157, form named): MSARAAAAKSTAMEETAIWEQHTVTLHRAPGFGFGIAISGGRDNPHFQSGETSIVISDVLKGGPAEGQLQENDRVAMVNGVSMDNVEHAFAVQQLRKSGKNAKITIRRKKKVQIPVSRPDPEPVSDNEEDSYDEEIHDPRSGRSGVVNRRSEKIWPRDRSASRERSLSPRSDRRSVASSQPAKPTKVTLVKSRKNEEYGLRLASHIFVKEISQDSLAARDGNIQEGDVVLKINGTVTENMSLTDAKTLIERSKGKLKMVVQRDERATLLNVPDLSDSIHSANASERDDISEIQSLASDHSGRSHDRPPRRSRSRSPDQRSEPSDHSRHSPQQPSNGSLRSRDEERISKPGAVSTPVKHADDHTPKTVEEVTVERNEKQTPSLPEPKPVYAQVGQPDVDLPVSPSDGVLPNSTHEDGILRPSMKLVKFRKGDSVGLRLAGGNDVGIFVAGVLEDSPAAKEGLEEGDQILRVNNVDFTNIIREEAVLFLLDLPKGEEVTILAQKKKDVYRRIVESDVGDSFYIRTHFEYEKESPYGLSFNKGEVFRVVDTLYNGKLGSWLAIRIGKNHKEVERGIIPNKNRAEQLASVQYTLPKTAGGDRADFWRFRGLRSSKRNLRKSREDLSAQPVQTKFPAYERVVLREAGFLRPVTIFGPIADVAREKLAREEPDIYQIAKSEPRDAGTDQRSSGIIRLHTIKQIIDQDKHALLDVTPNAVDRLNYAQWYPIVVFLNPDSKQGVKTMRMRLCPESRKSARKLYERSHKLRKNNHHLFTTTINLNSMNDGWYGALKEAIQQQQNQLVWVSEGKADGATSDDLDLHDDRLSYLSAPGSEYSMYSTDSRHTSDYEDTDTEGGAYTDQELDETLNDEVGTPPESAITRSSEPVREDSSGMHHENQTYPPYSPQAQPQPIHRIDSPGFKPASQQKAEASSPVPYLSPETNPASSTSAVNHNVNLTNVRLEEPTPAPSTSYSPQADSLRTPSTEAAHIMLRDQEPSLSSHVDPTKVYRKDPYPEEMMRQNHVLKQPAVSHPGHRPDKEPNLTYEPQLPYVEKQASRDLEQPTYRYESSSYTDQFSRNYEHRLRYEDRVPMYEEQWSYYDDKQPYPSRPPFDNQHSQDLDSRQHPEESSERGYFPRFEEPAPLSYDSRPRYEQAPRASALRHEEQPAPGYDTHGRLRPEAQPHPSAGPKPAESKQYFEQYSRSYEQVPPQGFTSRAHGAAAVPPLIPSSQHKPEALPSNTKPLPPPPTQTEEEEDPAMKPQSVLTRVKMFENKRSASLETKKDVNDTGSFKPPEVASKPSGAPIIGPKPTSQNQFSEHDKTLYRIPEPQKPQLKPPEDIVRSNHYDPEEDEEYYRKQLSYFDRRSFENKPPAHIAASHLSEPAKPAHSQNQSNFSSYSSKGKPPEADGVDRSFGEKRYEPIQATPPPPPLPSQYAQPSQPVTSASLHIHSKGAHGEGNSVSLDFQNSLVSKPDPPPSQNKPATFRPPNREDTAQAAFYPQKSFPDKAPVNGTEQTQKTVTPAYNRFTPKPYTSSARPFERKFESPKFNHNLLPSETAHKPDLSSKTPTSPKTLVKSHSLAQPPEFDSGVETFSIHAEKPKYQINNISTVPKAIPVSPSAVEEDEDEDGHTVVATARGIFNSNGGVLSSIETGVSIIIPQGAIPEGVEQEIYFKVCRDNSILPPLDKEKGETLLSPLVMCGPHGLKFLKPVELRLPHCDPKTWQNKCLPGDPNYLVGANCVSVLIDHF
UniProt P41240: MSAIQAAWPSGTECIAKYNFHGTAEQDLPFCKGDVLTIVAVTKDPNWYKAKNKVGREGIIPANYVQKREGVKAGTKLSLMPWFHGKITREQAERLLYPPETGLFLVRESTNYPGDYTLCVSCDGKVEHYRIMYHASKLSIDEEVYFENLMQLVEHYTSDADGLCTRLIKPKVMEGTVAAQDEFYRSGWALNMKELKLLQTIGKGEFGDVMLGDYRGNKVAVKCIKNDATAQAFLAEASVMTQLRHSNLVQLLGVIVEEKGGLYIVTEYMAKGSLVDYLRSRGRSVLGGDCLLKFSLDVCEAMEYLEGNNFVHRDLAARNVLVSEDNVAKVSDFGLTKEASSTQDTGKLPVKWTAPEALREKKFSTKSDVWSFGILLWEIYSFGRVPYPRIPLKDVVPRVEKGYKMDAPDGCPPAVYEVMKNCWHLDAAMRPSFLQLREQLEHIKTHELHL

Columns and labels:
[1] = biological target: FC-tagged PEAK1^WT (human) (UniProt Q9H792); experiment: co-IP; HEK293T lysates overexpressing FC-Control, FC-tagged PEAK1 WT, truncations or mutants (in Fig. 5e with GFP-CSK co-overexpressed); co-precipitated ZO-1, CSK or Src read by blot
[2] = biological target: PEAK1 (Pseudopodium-Enriched Atypical Kinase 1), endogenous in Caco-2 cells (human (endogenous in Caco-2)) (UniProt Q9H792); experiment: co-IP; endogenous proteins of Caco-2 lysates (RM buffer, 150 mM NaCl, 1% NP-40); anti-PEAK1, anti-ZO-1 or anti-CSK antibody and protein A sepharose, 4 °C; cells also PEAK1 knockout, CSK knockout, PEAK1 Y724F edited, 10 μM PP2 2 h, 100 nM BafA1 12 h
[3] = biological target: ZO-1, endogenous in Caco-2 cells (human (endogenous in Caco-2)) (UniProt Q07157); experiment: as above
[4] = biological target: GFP-tagged mutant ZO-1 with a 1212-1217 amino acid deletion (human) (UniProt Q07157); experiment: co-IP; HEK293T cells transfected with GFP-tagged ZO-1 (WT) or Δ1212-1217; co-precipitated LC-3B and PEAK1 read by blot
GFP-tagged ZO-1 = biological target: T1, GFP-tagged ZO-1 (human, UniProt Q07157 1-1748); experiment: as above
T1 construct: ZO-1, human cDNA cloned into pTriEx-GFP; last truncation ends at 1748; also called GFP-ZO-1; GFP-tagged ZO-1 (WT); source: HEK293T, transfected, in lysate; also purified from HEK293T (anti-GFP magnetic beads, glycine pH 2.5 elution)

[5] = biological target: FC-tagged PEAK1 S729/730 A (human) (UniProt Q9H792); experiment: co-IP; HEK293T lysates overexpressing FC-Control, FC-tagged PEAK1 WT, truncations or mutants (in Fig. 5e with GFP-CSK co-overexpressed); co-precipitated ZO-1, CSK or Src read by blot
[6] = biological target: FC-tagged PEAK1 S723A (human) (UniProt Q9H792); experiment: as above
[7] = biological target: FC-tagged PEAK1 8×S-A (human) (UniProt Q9H792); experiment: as above
[8] = biological target: FC-tagged PEAK1 S725/726/727 A (human) (UniProt Q9H792); experiment: as above
[9] = biological target: T2, FC-tagged PEAK1 fragment spanning amino acids 700 to 750 (human) (UniProt Q9H792); experiment: as above
T2 sequence: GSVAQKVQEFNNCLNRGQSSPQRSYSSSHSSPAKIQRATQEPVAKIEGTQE

[10] = biological target: FC-tagged PEAK1 S718/719 A (human) (UniProt Q9H792); experiment: as above
[11] = biological target: ZO-1, endogenous in Caco-2 cells (human (endogenous in Caco-2)) (UniProt Q07157); experiment: co-IP; endogenous proteins of Caco-2 lysates (RM buffer, 150 mM NaCl, 1% NP-40); anti-PEAK1, anti-ZO-1 or anti-CSK antibody and protein A sepharose, 4 °C; cells also PEAK1 knockout, CSK knockout, PEAK1 Y724F edited, 10 μM PP2 2 h, 100 nM BafA1 12 h; remark: listed apart in the source
[12] = biological target: PEAK1 (Pseudopodium-Enriched Atypical Kinase 1), endogenous in Caco-2 cells (human (endogenous in Caco-2)) (UniProt Q9H792); experiment: as above; remark: listed apart in the source

binding [1]: binds
Molecule: CSK in HEK293T cell lysate (from UniProt P41240 1-450)

binding [2]: binds
Molecule: CSK, endogenous in Caco-2 cells (from UniProt P41240 1-450)

binding [3]: no binding
Molecule: PEAK1 Y724F, expressed from the edited gene in Caco-2 cells (from UniProt Q9H792 1-1746)

binding [4]: binds weakly
binding (GFP-tagged ZO-1): binds
Molecule: PEAK1 in HEK293T cell lysate (from UniProt Q9H792 1-1746)

binding [5]: binds
binding [6]: binds
binding [7]: binds
binding [8]: binds
binding [9]: binds
binding [1]: binds
binding [10]: binds
Molecule: ZO-1 in HEK293T cell lysate (from UniProt Q07157 1-1748)

binding [2]: binds
Molecule: ZO-1, endogenous in Caco-2 cells (from UniProt Q07157 1-1748)

binding [3]: binds
Molecule: PEAK1 phosphorylated at Y724, endogenous in Caco-2 cells (from UniProt Q9H792 1-1746)

binding [11]: binds
binding [12]: binds
B1: Occludin, endogenous in Caco-2 cells (protein, UniProt Q16625 1-522)
chain: MSSRPLESPPPYRPDEFKPNHYAPSNDIYGGEMHVRPMLSQPAYSFYPEDEILHFYKWTSPPGVIRILSMLIIVMCIAIFACVASTLAWDRGYGTSLLGGSVGYPYGGSGFGSYGSGYGYGYGYGYGYGGYTDPRAAKGFMLAMAAFCFIAALVIFVTSVIRSEMSRTRRYYLSVIIVSAILGIMVFIATIVYIMGVNPTAQSSGSLYGSQIYALCNQFYTPAATGLYVDQYLYHYCVVDPQEAIAIVLGFMIIVAFALIIFFAVKTRRKMDRYDKSNILWDKEHIYDEQPPNVEEWVKNVSAGTQDVPSPPSDYVERVDSPMAYSSNGKVNDKRFYPESSYKSTPVPEVVQELPLTSPVDDFRQPRYSSGGNFETPSKRAPAKGRAGRSKRTEQDHYETDYTTGGESCDELEEDWIREYPPITSDQQRQLYKRNFDTGLQEYKSLQSELDEINKELSRLDKELDDYREESEEYMAAADEYNRLKQVKGSADYKSKKNHCKQLKSKLSHIKKMVGDYDRQKT
